According to the supplement of paper PMC11417369:
The other results are listed elsewhere or left out.

What follows are sequences tested on PfAP2-HC AP2 domain (GST-tagged) (assay: gcPBM binding intensity (ln(normalized median fluorescence intensity)); higher = stronger DNA binding).
In short: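 Binding of GST-tagged P. falciparum DNA-binding domains, expressed in E. coli and used at about 25 μg on average, was carried out for 1 h in 1× PBS containing 1% milk, 0.2 mg/ml BSA, 0.5% salmon testes DNA and 0.03% Triton X-100. The target was an Agilent 4 × 180k array of primer-extended double-stranded 36-bp intergenic genomic probes plus negative controls, read with Alexa488 anti-GST antibody at 488 nm. Binding intensity is the highest Masliner-normalised natural-log median intensity across replicate spots of either probe orientation.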

Row | Sequence | gcPBM binding intensity (ln)
1 | CTTATTTTATTCGAATGTACATAATTGTTAGACATT [XGTACX_site8583] | 9.56
2 | AAAAAAAGGATGTACGTATCATAATTTTATTTTATA [CACACA_negctrl_site1543] | 9.68
3 | TTTTACAAATGTTTTACACACACATAATTGTATCAA [CACACA_site4166] | 9.92
4 | AATAATAACAAATGAACACACATATAGATGAGCAAA [CACACA_site7076] | 10.3
5 | CTTAAGTAAAATTAAAGTACATGGACAAAAAATATA [XGTACX_site7900] | 9.62
6 | TATCTCATGCGCACAAAAATATATGCAAAGAGTATA [TGCATGCA_negctrl_site201] | 9.54
7 | ATATGTGTTAAAAATGCACACAAAAAAATATACATA [CACACA_site7988] | 10
8 | CAATTTTACTCATAAACACACATATATATGTTATTA [CACACA_site3152] | 9.8
9 | ATAAAAATGTATATATGTACATATATATATATATAT [XGTACX_site1505] | 10.4
10 | TTTTTTTTTTTTAATACACACATATATATATTTATT [CACACA_site3994] | 9.76
11 | GTAAAAAAAAAAAAATGTACACATATATATAATATA [XGTACX_site159] | 9.6
12 | AACATAATTAAAAATTGTACAGAATTTCAATCGAAA [XGTACX_site7542] | 9.62
13 | CATATACATACACATACACACATACAGACATACACA [CACACA_site6919] | 10.2
14 | GGGAAAGAACCATATACATGCATATTTACCGTTAAA [TGCATGCA_site519] | 9.57
15 | TGAAATTTTATTAATGTGCACATATATTTATTGTTC | 9.76
16 | CTTTTTAATTAATACACACACACACCCATATATATA [CACACA_site2292] | 10.6
17 | ATCACTTGAGAATAATTACATTAATATATATTTATG [TGCATGCA_negctrl_site581] | 9.48
18 | ATATTATCCCTATTTGCACACAAGAGTAATTTTTTA [CACACA_site3908] | 9.87
19 | TTTCTTTCTATTGTTATATTTATAATAATTATAATT [XGTACX_negctrl_site215] | 9.72
20 | TATAAAATTACATTTTGTCATTTATTTTTTCCCACT [TGCATGCA_negctrl_site110] | 9.49
21 | TGTTTAAGTGTTTTTAGTACTTATAAAAATATTATC [XGTACX_site7379] | 9.39
22 | TGATGATATAAAAACACACACATATAACATAATACT [CACACA_site6687] | 10.5
23 | TTATTATATATAAGTAGTACAAACAATTAAGAGATA [XGTACX_site4009] | 9.87

Row | Sequence | gcPBM binding intensity (ln)
24 | TTTCTAATATATAAAGTGCAATACCATTCAGAGTTA | 9.5
25 | ATTGTCTTTTAATAGTGTACTTATTTTAAATATTGC [XGTACX_site8517] | 9.71
26 | TTTTATAGAGTGTATACATGCAATACCACATAAAAT [TGCATGCA_site476] | 9.57
27 | ATATGGAAGAATTAAAGTACTTAAAAAAATGTCAGT [XGTACX_site6837] | 9.83
28 | AAGAAAATAAAATAAAATAAAATAAAATAAAAATAT [TGCATGCA_negctrl_site493] | 9.71
29 | TATAATTTATAAGTAGTGCATTTCTTTTCATTTTTA | 9.5
30 | TAACTATATTTTTACTGTACAAAAAAATTAAATAAT [XGTACX_site1765] | 9.4
31 | ATATTAATTCTACATTGTACACATGAAAAAATATAA [XGTACX_site8759] | 9.51
32 | AAAACACAAAAAAAATGTACACATATATATATATAT [XGTACX_site8509] | 10.1
33 | CTAAGAAAAAATAAAGCACACAAATATTTTAAAAAC [CACACA_site9094] | 9.93
34 | CATTATGTCGTAAATACACACATACAGATACATACA [CACACA_site4880] | 10
35 | AAATTAAATAAATTTACACACTAAAAATTACAGATA [CACACA_site4722] | 9.75
36 | GTTATATATAATAATTGTACAAAATTAAATATAACT [XGTACX_site4189] | 9.51
37 | TTTTTATTTGGTTGTGTACACATATATATATATATA [CACACA_site5844] | 9.84
38 | AAAAAACACCCACATACACACAAAAATGTTATAAAT [CACACA_site81] | 10.3
39 | AATAAATTATGAACGGTGCAGGAAAAATTGTAACAT | 9.87
40 | TAGATTATTTTATTTAGTACATAAAAAAGTAAGACC [XGTACX_site7889] | 9.65
41 | CAAAAAAACAAACACACACACACACCGATATATATA [CACACA_site9218] | 10.5
42 | AAACATAAGGGACACACACACATATATATATATATA [CACACA_site5920] | 10.3
43 | TGAAGTGCAAAATACTGTACGTAATGTGCTTGTTAC [XGTACX_site4512] | 9.71
44 | AAAAAAAAATGTCATGGTACACAATTTTTTCTTTTT [XGTACX_site4505] | 9.76
45 | TAAAGTAAAACAAGGTAAGGTTTTTCTTTTTCTTTT [CACACA_negctrl_site1271] | 9.35
46 | AAAAAGAATAAATAAATATAAATAAATAAATATATA [GTGCAC_negctrl_site336] | 9.61

Row | Sequence | gcPBM binding intensity (ln)
47 | ACATATAGAAGTATCTATAAACAGTGATAGCATTTT [CACACA_negctrl_site1122] | 9.69
48 | CAATCTTTTACGAATACACACACATAAAGAAAAAAA [CACACA_site8367] | 9.93
49 | TTAAATAAATAAAAATGTACATGCATATATAAATAT [XGTACX_site8908] | 9.75
50 | AATTTTTTATATGTCACACATTTGTTATTATTATTA [CACACA_site4197] | 9.88
51 | GAGTAAATAAATAAATGTACATATATATATATTATC [XGTACX_site8466] | 9.74
52 | ATACATAAATATTGATGTACTCATTTAATATATTAT [XGTACX_site3992] | 9.61
53 | AATATATATATATATATATATTTTTGTTAGAATATG [XGTACX_negctrl_site58] | 9.46
54 | TATAATAAATATTAACGTACTCATATATATATATAT [XGTACX_site3871] | 9.61
55 | GCAAGGAAATAATTGATAATATATATATATATATAT [GTGCAC_negctrl_site400] | 9.42
56 | AGGCTACGAATAGAATGTACCCGAAATAAGGAATAT [XGTACX_site6012] | 9.5
57 | TATGTAAATCTCTTAAGAATTCGCTATATCTCTTTT [CACACA_negctrl_site1180] | 9.54
58 | ATATAAGCGTATACATGTACATATATATCTTTGTAA [XGTACX_site2742] | 9.69
59 | CTAAAATACGGACACACACACACATATATATATATA [CACACA_site6138] | 11.4
60 | ATTGTATATAAATGAGTGCATACTATGTTGTTCTTA [GTGCAC_site9678] | 9.72
61 | ATTATCTCCGCCATGTGGACACATATAAGACATTTT [XGTACX_site2889] | 9.8
62 | AAAAAAAAAAAAAACACACACACAAAAAAAAATATA [CACACA_site1104] | 11.3
63 | AAATTAGAAATACCTACACACTTATCAAAATAAATT [CACACA_site7132] | 9.87
64 | ATAATTATGAAGCATACATGCATGTCCTGGCTTAAA [TGCATGCA_site491] | 9.51
65 | AAAATATGTAGACACATACACACATATATATATATA [CACACA_site1221] | 9.89
66 | TTTTTTTTTTCAAATGCATGCAAAAAAAAAAAAATA [TGCATGCA_site945] | 9.04
67 | TATATGTATGTTTGTTTGTTTGTATTTTTTAAGGTA [XGTACX_negctrl_site619] | 9.96
68 | TTTTCTTTTTCCAAAAGTACGTAATTTAAACATTTT [XGTACX_site2066] | 9.49
69 | ATCTAAATTTTTCCATGTACATATACTTTTATGCAT [XGTACX_site2683] | 9.82

Row | Sequence | gcPBM binding intensity (ln)
70 | TTATAATATGGATACACACACATATATAAATATATA [CACACA_site5314] | 9.96
71 | AAAAAATAAATAAATACACACAAATCTATATTTATA [CACACA_site7243] | 9.81
72 | AATCACCAAATATGTACACACCTTAACATGTTTATA [CACACA_site5180] | 9.98
73 | ATTATTCATTTATGTAGTACATTTTAATACATTTAA [XGTACX_site3599] | 9.66
74 | AAGAAAAATTTAAACTGTACTTGTTTTCCAATGAAC [XGTACX_site4443] | 9.44
75 | AAAAAAAAAAAAGTTACACACAAATAAAATATTTGG [CACACA_site694] | 9.74
76 | ATAAAAAAAAATAAATGTACAAATTAACAAAATAAT [XGTACX_site5048] | 9.91
77 | TAATATTTACATATTACACACACGTATTATTAAATA [CACACA_site6340] | 9.75
78 | TATTTTTTAAAAATGGGTACACATAAATAAATAAAT [XGTACX_site7643] | 9.4
79 | ATCTAAACAAATAATACACACAATAAAATAGGAAGA [CACACA_site4072] | 10.1
80 | TGTGAATAAATAAGCACACATAAACCCATATATAAA [CACACA_site4103] | 10.1
81 | TTCAAAATAAAAAATTCACACACATATATATATATA [CACACA_site8653] | 9.83
82 | TTATAATCAATGAATACACACATATATTTCATTAAT [CACACA_site5909] | 9.78
83 | TAATAATAGAGACACACACACATAGACATATAAATA [CACACA_site6729] | 10.9
84 | ATCTATGAAAAAGGTACATGCAATAAAGAAACATAT [TGCATGCA_site805] | 9.72
85 | TTATACTATTTTTATACATGCATTTCTATATATTTT [TGCATGCA_site316] | 9.9
86 | ATTTATTAAATTTATAGTACTCAAAGATTTTTATTT [XGTACX_site6661] | 9.51
87 | AAATAAAACAATTAACGTACAAGCATATATATATAT [XGTACX_site8508] | 9.71
88 | TATGTATAATTATTTTGTACTTATTAAATTTTTTTT [XGTACX_site5413] | 9.53
89 | TATATATATATTATATGTACACAAGGAAATATGCAT [XGTACX_site5637] | 9.82
